Reference: PMC2764435 (Nucleic Acids Research, 2009)

B1: PspF_([…]) F85C (domain or fragment)
chain: not shown
B2: PspF_([…]) F85Q (domain or fragment)
chain: not shown
B3: PspF_([…]) F85Y (domain or fragment)
chain: not shown
B4: PspF_([…]) F85H (domain or fragment)
chain: not shown
B5: PspF_([…]) F85W (domain or fragment)
chain: not shown
B6: PspF_([…]) F85L (domain or fragment)
chain: not shown
B7: PspF_([…]) F85I (domain or fragment)
chain: not shown

Experiments:
[1] = molecular target: the molecule itself; assay: SEC
[2] = molecular target: Klebsiella pneumoniae σ^54 (Klebsiella pneumoniae, UniProt P06223); assay: native gel or EMSA
[3] = molecular target: σ^54G4L (Klebsiella pneumoniae, UniProt P06223, G4L); assay: native gel or EMSA

Row | Binder | stoichiometry N [1] | binding result [2] | binding result [3]
1 | B1 | 8 |  | 
2 | B2 | 8 |  | 
3 | B3 |  | binds | binds
4 | B4 | 8 |  | 
5 | B5 | 8 |  | 
6 | B6 | 8 |  | 
7 | B7 | 8 |  | 
